Data taken from PubChem BioAssay AID686978 (National Center for Advancing Translational Sciences (NCATS), 2013).
In all, about 420,000 compounds went through this assay and about 64,000 (15%) were called active. Inconclusive means that the source gave no clear call. Such entries were picked first, then a sample of the others. The call rests on the fitted dose curve; in most records, active means well fitted inhibition curve with a large enough effect; inconclusive means small, poorly fitted or top-dose-only effect; inactive means flat fitted curve, though single readings scatter. No potency is given beside an inconclusive call; the fits are too rough.

Assay: qHTS for Inhibitors of human tyrosyl-DNA phosphodiesterase 1 (TDP1): qHTS in cells in absence of CPT; further: nearly all actives have a fitted effect of over 55% in size
Details: DT40 Tdp1-/- hTDP1 cells, no CPT, ATP luminescence, 48 h; activity change, negative = growth inhibition: at 46.2 µM (top of the series) unless noted
Method in brief: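 Luminescent ATP content (CellTiter-Glo) served as the growth readout. Knockout chicken DT40 cells expressing human TDP1 were exposed to compounds without camptothecin for a minimum 48 hr at 37 °C.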
On the % scale 0 is the no-effect control and ±100 the full control effect; potency means the concentration at half of the fitted maximal effect; tags describe the fitted curve by direction and shape.

Structure (SMILES)	Potency	activity change, negative = growth inhibition
COc1ccccc1Nc1ccc(Nc2ccccc2OC)nn1	inconclusive [inhibitor, single point]	
CCCn1c2ccccc2c2cnn(CC(=O)N3CCN(c4ccccc4)CC3)c(=O)c21	inconclusive [inhibitor, single point]	
Cc1cc[n+](C2=C([O-])c3ccccc3C(=O)/C2=N\S(=O)(=O)c2cccs2)cc1C	inconclusive [inhibitor, single point]	
O=C(CSc1nc2ccccc2o1)c1ccccc1		inactive: -10%
CC(=O)Nc1cc(-c2ccc(N3CCN(C)CC3)cc2)cn2c(-c3ccc(S(C)(=O)=O)cc3)cnc12	active: 20.6 µM	
C(#Cc1c(-c2ccsc2)sc2ccccc12)c1ccsc1		inactive: -8.92%
COc1ccc(OC)c(NC(=O)CN(C)S(=O)(=O)c2ccc(Cl)cc2)c1		inactive: -29.9%
C=C(C)c1cccc(C(C)(C)NC(=O)NNC(=O)c2ccccc2O)c1	inconclusive [inhibitor, single point]	
COCCNC(=O)C1CCN(C(=O)c2cc3sccc3n2Cc2ccc(F)cc2)CC1	inconclusive [inhibitor, partial curve]	
Cc1cccc(CSc2ncc(Cl)c(C(=O)Nc3nc4ccc(F)cc4s3)n2)c1		inactive: -26.7%
CCN1CCN(C(=O)Cn2cnc3sc(C)c(S(=O)(=O)N4CCN(c5ncccn5)CC4)c3c2=O)CC1		inactive: 1.39%
O=C(Cn1cc(C(=O)c2ccco2)c2ccccc21)NC1CCCC1		inactive: -12.8%
COc1cccc(CNC(=O)c2ccc(-n3c(C)cc4c3CCC(C)C4)cc2)c1 (configuration not stated)	inconclusive [inhibitor, single point]	
COc1ccc(-c2coc3c(C(=O)NC4CCCCC4)cccc23)c(C)c1	inconclusive [inhibitor, single point]	
Cc1ccc(CNC(=O)CN2C(=O)CSc3ccc(S(=O)(=O)N4CCC(C)CC4)cc32)cc1		inactive: -17.1%
CSc1ccc(Cn2c(C)c(C(=O)NCc3ccco3)sc2=O)cc1	inconclusive [inhibitor, single point]	
CC(C)NC(=O)c1ccc(NC(=O)N2CCCCc3ccccc32)cc1	inconclusive [inhibitor, single point]	
CCOC(=O)c1sc(NC(=O)CSc2nnc(-c3ccco3)o2)c(C(=O)OCC)c1C	inconclusive [inhibitor, single point]	
O=C1c2ccccc2C(=O)N1c1ccccn1		inactive: 6.88%
O=C(Cn1c(=O)nc(-c2ccccc2)c2cc(Cl)ccc21)Nc1ccc(F)c(Cl)c1	inconclusive [inhibitor, single point]	
C=CCn1c(=O)c(C(=O)OCC)c(O)c2ccccc21	inconclusive [inhibitor, partial curve, poor fit]	
CCOC(=O)C1CCCN(C(=O)c2cc(C(C)(C)C)nn2C)CC1 (configuration not stated)	inconclusive [inhibitor, single point]	
CC(O)(c1ccccc1)c1nc(/C=C/c2ccccc2)cs1 (configuration not stated)	inconclusive [inhibitor, single point]	

Structure (SMILES)	Potency	activity change, negative = growth inhibition
COC(=O)c1ccc2nc(NC(=O)C(C)(C)C)sc2c1	inconclusive [inhibitor, single point]	
O=C(c1cccc(Oc2c(Cl)cccc2[N+](=O)[O-])c1)N1CCCCC1	inconclusive [inhibitor, single point]	
COc1cc(OC)c2c(c1)OC(c1ccccc1)CC2=O (configuration not stated)	inconclusive [inhibitor, single point]	
COc1cccc(-c2nc(NC3CCCC3)c3ccccc3n2)c1O	active: 18.4 µM	
CCN(CC(=O)NC(C)(C)C)Cc1nc2c(Br)cc(Br)cc2c(=O)[nH]1	inconclusive [inhibitor, single point]	
COc1ccccc1C(=O)Nc1cccc(NC(=O)c2ccccc2C)c1	inconclusive [inhibitor, single point]	
CCOc1cc(/C=C2\C(=O)N(Cc3ccc(C)cc3)C(C)=C2C(=O)OC)ccc1O	inconclusive [inhibitor, single point]	
COc1cc(SC)ccc1C(=O)Nc1cc(C)c(OCC(=O)N2CCOCC2)c(C)c1	active: 23.1 µM	
CCOc1cc(/C=C2\C(=O)N(Cc3ccco3)C(C)=C2C(=O)OC)ccc1O	inconclusive [inhibitor, single point]	
COc1ccc(Cn2ccnc2SCC(=O)Nc2ccccc2OC)cc1	inconclusive [inhibitor, single point]	
Cc1c(C)n(CCN(C)C)c2ccc(C(=O)OCCN(C)C)cc12	active: 21.1 µM	
O=C(c1ccc(COc2ccccc2Cl)o1)N1CCN(c2ccccc2)CC1	active: 29.1 µM	
CCOc1ccc(CC(=O)NCCc2sc3nc(-c4ccc(F)cc4)nn3c2C)cc1	inconclusive [inhibitor, single point]	
Cc1ccccc1NC(=O)c1cccc2c1C(=O)N(C1CCCCC1)C2	inconclusive [inhibitor, single point]	
COc1ccc(-c2cc(=O)oc3cc(OCC(=O)N(C)C)ccc23)cc1	inconclusive [inhibitor, single point]	
Cc1ccoc1C(=O)Nc1cccc(Oc2ccccc2)c1	inconclusive [inhibitor, single point]	
C/C(=N\Nc1cc(N2CCOCC2)ncn1)c1ccc(O)cc1	inconclusive [inhibitor, single point]	
Brc1ccc2c(c1)OCCOCCOCCOCCOCCO2	inconclusive [inhibitor, single point]	
CC(=O)C1=C(C)NC(=S)NC1c1cc([N+](=O)[O-])ccc1O (configuration not stated)		inactive: -0.987%
COc1ccc(Cc2n[nH]c(=S)n2-c2ccc3c(c2)OCCO3)cc1	inconclusive [inhibitor, single point]	
CC(C)N(Cc1nc(-c2ccc(Cl)cc2)no1)C(=O)c1ccc(C(C)(C)C)cc1	inconclusive [inhibitor, single point]	
O=C1NC(=O)c2cc([N+](=O)[O-])cc3cccc1c23	inconclusive [inhibitor, single point]	
O=C1OC(c2cccc3c(F)cccc23)c2ccccc21 (configuration not stated)	inconclusive [inhibitor, full curve, poor fit]	

Structure (SMILES)	Potency	activity change, negative = growth inhibition
COc1ccc(-c2cc(C(=O)N3CCOCC3)c3cc(C)ccc3n2)cc1	inconclusive [inhibitor, single point]	
COc1ccc([C@H]2C[C@H](O)[C@@H](n3cc(C4CC4)nn3)CN2CC2CCCCC2)cc1	inconclusive [inhibitor, partial curve]	
Cc1nc(SCc2cccc(Cl)c2)nc2c1CCCC2		inactive: -26.3%
Cc1ccccc1Cn1c(SCc2ccc(C(=O)NC3CCCCC3)cc2)nc2ccncc21	inconclusive [inhibitor, single point]	
Cc1ccccc1NC(=O)Cc1c(O)c2ccccc2[nH]c1=O		inconclusive: -32.7% [inhibitor]
CC(Oc1ccccc1)C(=O)Nc1ccc(S(=O)(=O)NCC2CCCO2)cc1 (configuration not stated)	inconclusive [inhibitor, single point]	
COc1cc(/C=N/NC(=O)c2ccccc2Cl)ccc1Oc1ccc([N+](=O)[O-])cn1	inconclusive [inhibitor, single point]	
Cc1ccc(CN2CCN(c3ccccc3)CC2)o1	inconclusive [inhibitor, partial curve]	
Cn1cnnc1SCC(=O)NNC(=O)c1ccc([N+](=O)[O-])cc1		inactive: 18.6%
COc1cccc(C(C(=O)NC2CCCC2)N(CCC(C)C)C(=O)CCC(=O)Nc2cc(C)on2)c1 (configuration not stated)	inconclusive [inhibitor, single point]	
Cc1ccc(-c2ccc(/C=N/c3ncn[nH]3)o2)cc1Cl		inconclusive: -31.7% [inhibitor]
CNC(=S)NC12CC3CC(CC(C3)C1)C2	inconclusive [inhibitor, single point]	
COc1ccc(NC(=O)N(C)C[C@H]2Oc3ccc(NC(=O)Nc4ccc(C(F)(F)F)cc4)cc3C(=O)N([C@H](C)CO)C[C@@H]2C)cc1	inconclusive [inhibitor, single point]	
O=C(/C=C/c1ccc2c(c1)OCO2)NCc1ccc(F)cc1		inconclusive: -40.6% [inhibitor]
CCC(=O)OCCNc1cc(Sc2nc3ccccc3s2)c2nonc2c1[N+](=O)[O-]	active: 2.06 µM	
Fc1ccc(NCc2ccccc2-c2nnc(-c3ccccc3Cl)o2)cc1	inconclusive [inhibitor, single point]	
CCOc1ccc(-c2cc3nc(C4CCN(C(=O)OC(C)(C)C)CC4)c(C(=O)Nc4cccc(CC)c4)cn3n2)cc1	inconclusive [inhibitor, single point]	
COc1ccccc1-c1nc(SCC(=O)Nc2ccccc2)n[nH]1		inactive: -20.3%
CCc1ccc(-c2nc(CSCC(=O)NCc3ccco3)c(C)o2)cc1	inconclusive [inhibitor, single point]	
COc1ccccc1CN(Cc1cccnc1)S(=O)(=O)c1ccc(-n2cnnn2)c(OC)c1	active: 20.6 µM	
Cc1nc2nc(SCC(=O)Nc3cccc(F)c3)[nH]c2cc1Br	inconclusive [inhibitor, partial curve]	
